Laboratory results as given in PMC4336329 (PLoS ONE, 2015).
Screen size: about 310,000 compounds; about 14,000 (4.5%) showed an effect of 50% or more. The effect is printed as a negative number. This is one part of the list.
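Also: peak tail current of the secondary pulse compared with the same well before compound.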

What follows are compounds tested against human ether-à-go-go-related gene (hERG) potassium channel (human, UniProt Q12809) (assay: primary screen, population patch clamp on CHO cells stably expressing hERG).
human ether-à-go-go-related gene (hERG) potassium channel, sequence (Q12809 whole entry, looked up): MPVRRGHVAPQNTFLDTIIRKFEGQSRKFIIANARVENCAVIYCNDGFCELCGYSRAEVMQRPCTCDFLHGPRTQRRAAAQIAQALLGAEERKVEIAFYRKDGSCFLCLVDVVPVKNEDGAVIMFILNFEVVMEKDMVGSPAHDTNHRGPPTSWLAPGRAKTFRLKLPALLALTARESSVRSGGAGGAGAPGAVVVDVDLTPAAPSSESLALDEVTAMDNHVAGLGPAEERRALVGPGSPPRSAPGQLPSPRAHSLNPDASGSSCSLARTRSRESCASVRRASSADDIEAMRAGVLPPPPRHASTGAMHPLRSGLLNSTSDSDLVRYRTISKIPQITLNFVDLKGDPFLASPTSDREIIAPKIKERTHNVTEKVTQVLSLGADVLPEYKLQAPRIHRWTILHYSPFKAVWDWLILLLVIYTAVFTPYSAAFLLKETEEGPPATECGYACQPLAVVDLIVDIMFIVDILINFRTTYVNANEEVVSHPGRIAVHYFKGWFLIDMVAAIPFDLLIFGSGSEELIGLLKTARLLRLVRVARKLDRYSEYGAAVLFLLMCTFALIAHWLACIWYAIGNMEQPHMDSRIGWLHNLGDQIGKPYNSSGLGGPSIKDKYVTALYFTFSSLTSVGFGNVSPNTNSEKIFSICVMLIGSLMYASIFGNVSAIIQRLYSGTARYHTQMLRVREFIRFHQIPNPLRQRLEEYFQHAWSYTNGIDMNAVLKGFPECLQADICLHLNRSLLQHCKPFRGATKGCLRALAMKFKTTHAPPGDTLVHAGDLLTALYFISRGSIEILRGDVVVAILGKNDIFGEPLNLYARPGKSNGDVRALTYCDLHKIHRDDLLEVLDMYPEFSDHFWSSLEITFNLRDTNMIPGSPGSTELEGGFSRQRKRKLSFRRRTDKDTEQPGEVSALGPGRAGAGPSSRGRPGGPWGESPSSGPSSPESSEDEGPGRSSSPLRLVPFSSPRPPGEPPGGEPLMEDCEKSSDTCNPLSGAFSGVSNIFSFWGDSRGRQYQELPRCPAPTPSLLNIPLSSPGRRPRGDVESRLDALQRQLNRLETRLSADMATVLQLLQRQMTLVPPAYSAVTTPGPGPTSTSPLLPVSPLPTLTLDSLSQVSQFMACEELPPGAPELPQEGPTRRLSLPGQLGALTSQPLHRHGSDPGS
O=C(CSCc1nc2c(nnn2Cc2ccc(F)cc2)c(=O)[nH]1)Nc1c(Cl)cc(Cl)cc1Cl was tested, and the “hERG current change (%, negative = inhibition) at 10uM” value was 27.3%. In the case of Cc1nnc(SCC(=O)N(CCC#N)c2ccc3c(c2)OCCO3)s1, the “hERG current change (%, negative = inhibition) at 10uM” value is reported as 3.94%. COc1cccc(-c2nc3c(c(SCC(=O)N4CCOCC4)n2)Cc2c(CO)cnc(C)c2O3)c1 was tested, and the “hERG current change (%, negative = inhibition) at 10uM” value was 16.6%. For Cc1c(C(=O)Nc2ccc3c4c(cccc24)CC3)cccc1[N+](=O)[O-], the “hERG current change (%, negative = inhibition) at 10uM” value was 9.1%. In the case of CCc1nnc(NC(=O)c2ccncc2)s1, the “hERG current change (%, negative = inhibition) at 10uM” value is reported as 2.72%. In the case of Cc1ccc(NC(=O)N2CCC(c3nc4c(nnn4Cc4c(F)cccc4Cl)c(=O)[nH]3)CC2)cc1, the “hERG current change (%, negative = inhibition) at 10uM” value is reported as -1.31%. With CC1=C(C(=O)OCc2ccccc2)C(c2cccs2)NC(=O)N1CCCC(=O)O (centres unmarked) the “hERG current change (%, negative = inhibition) at 10uM” value was 12.3%. In the case of O=C(Nc1nc2c(F)cc(F)cc2s1)C1CC1, the “hERG current change (%, negative = inhibition) at 10uM” value is reported as 6.36%. In the case of O=C(c1ccco1)N1CCN(C(=S)NCc2ccc(F)cc2)CC1, the “hERG current change (%, negative = inhibition) at 10uM” value is reported as -53.1%. O=C(O)CN1C(=O)C2C3CC(C2C1=O)C1C(c2ccc(Cl)cc2)c2sc(=O)[nH]c2SC31 (centres unmarked) was tested, and the “hERG current change (%, negative = inhibition) at 10uM” value was 0.367%. For O=S(=O)(c1ccc(SCCOc2ccc(Cl)cc2)nc1)N1CCCC1, the “hERG current change (%, negative = inhibition) at 10uM” value was -13%. In the case of CC(C)N(Cc1ccccc1)C(=O)COC(=O)c1ccc2c(c1)OCCO2, the “hERG current change (%, negative = inhibition) at 10uM” value is reported as 1.41%. In the case of Cn1ccc(=S)c2ccccc21, the “hERG current change (%, negative = inhibition) at 10uM” value is reported as 11.1%. COc1ccc(CCNS(=O)(=O)c2cn(C)nc2C)cc1 was tested, and the “hERG current change (%, negative = inhibition) at 10uM” value was 17.2%. In the case of Cc1ccccc1NC(=O)c1sc(NC(=O)COc2ccccc2)c(C#N)c1C, the “hERG current change (%, negative = inhibition) at 10uM” value is reported as 9.18%. In the case of COc1ccc(OCC(O)Cn2c(Nc3ccccc3)nc3c2c(=O)n(C)c(=O)n3C)cc1 (centres unmarked), the “hERG current change (%, negative = inhibition) at 10uM” value is reported as 2.94%. For O=C(c1csc2ccccc12)N1CCCCCC1, the “hERG current change (%, negative = inhibition) at 10uM” value was 8.81%. In the case of COC(=O)c1[nH]c2ccc(C)cc2c1NC(=O)CCN1CCN(Cc2ccc3c(c2)OCO3)CC1, the “hERG current change (%, negative = inhibition) at 10uM” value is reported as -66.1%. In the case of Cc1ccccc1CS(=O)(=O)CCC(=O)O, the “hERG current change (%, negative = inhibition) at 10uM” value is reported as 0.0412%. For O=C(NCCCl)Nc1ccccc1OCCOc1ccccc1NC(=O)NCCCl, the “hERG current change (%, negative = inhibition) at 10uM” value was -0.276%. C=CCn1c(SCC(N)=O)nnc1-c1cc(Br)ccc1O was tested, and the “hERG current change (%, negative = inhibition) at 10uM” value was -24.4%. COC(=O)CCCC(=O)N1CCCC(CNS(=O)(=O)c2ccc(OC)cc2)C1 (centres unmarked) was tested, and the “hERG current change (%, negative = inhibition) at 10uM” value was 32.1%. With CC(C)n1c(O)c(C=NCc2cccnc2)c(=O)[nH]c1=S the “hERG current change (%, negative = inhibition) at 10uM” value was -9.13%. With CCN(C(=O)CCCC(=O)N(CC)c1ccccc1)c1ccccc1 the “hERG current change (%, negative = inhibition) at 10uM” value was 20.4%. Cc1c(Nc2nc3ccccc3nc2NS(=O)(=O)c2cccc(Cl)c2)c(=O)n(-c2ccccc2)n1C was tested, and the “hERG current change (%, negative = inhibition) at 10uM” value was -2.18%. With Cc1ccc(N2CC(C(=O)N3CCN(c4ccccc4)CC3)CC2=O)cc1 (centres unmarked) the “hERG current change (%, negative = inhibition) at 10uM” value was -17.6%. In the case of Cc1cc(C)c(C#N)c(SCc2ccccc2)n1, the “hERG current change (%, negative = inhibition) at 10uM” value is reported as 11.2%. For Cc1occc1C(=O)Nc1ccc([N+](=O)[O-])cc1Br, the “hERG current change (%, negative = inhibition) at 10uM” value was 18.9%. In the case of COc1ccc(C2=NS(=O)(=O)N(C)C(C(=O)NC3CCCC3)=C2)cc1OC, the “hERG current change (%, negative = inhibition) at 10uM” value is reported as -17.5%. For CC(C)(C)c1cc(NC(=O)COC(=O)c2ccc3c(=O)n4c(nc3c2)CCC4)n(-c2ccccc2)n1, the “hERG current change (%, negative = inhibition) at 10uM” value was -24.9%. For CN1CCN(S(=O)(=O)c2cccc(C(=O)N(C)C(c3ccccc3)c3ccccc3)c2)CC1, the “hERG current change (%, negative = inhibition) at 10uM” value was -4.72%. CCOC(=O)CCc1c(C)nc(-n2[nH]c(C)c(CCO)c2=O)[nH]c1=O was tested, and the “hERG current change (%, negative = inhibition) at 10uM” value was 21.6%. In the case of Cc1ccc2nc(NCCNC(=O)c3ccccc3)c(C#N)cc2c1, the “hERG current change (%, negative = inhibition) at 10uM” value is reported as -0.918%. For Cc1cc(C)nc(N(C#N)Cc2cccc(Cl)c2)n1, the “hERG current change (%, negative = inhibition) at 10uM” value was -4.53%. For O=C(O)CN1C(=O)CCS(=O)c2ccccc21 (centres unmarked), the “hERG current change (%, negative = inhibition) at 10uM” value was 8.68%. In the case of O=C(COC(=O)c1ccc(O)cc1O)c1ccc(Cl)cc1, the “hERG current change (%, negative = inhibition) at 10uM” value is reported as 15.9%. For CCOc1cc(/C=N/NC(=O)CN2CCOCC2)ccc1OCc1ccccc1, the “hERG current change (%, negative = inhibition) at 10uM” value was -9.58%. For CC(=O)c1ccc(S(=O)(=O)NC2CC(=O)N(c3ccc(C)c(C)c3)C2)cc1 (centres unmarked), the “hERG current change (%, negative = inhibition) at 10uM” value was -21.4%. CC1CC(C)(C)NC(=S)N1CC(=O)NCc1ccc(Cl)cc1 (centres unmarked) was tested, and the “hERG current change (%, negative = inhibition) at 10uM” value was -11.3%. For CCc1ccc(CN(C(=O)c2oc3ccccc3c2C)C2CCS(=O)(=O)C2)cc1 (centres unmarked), the “hERG current change (%, negative = inhibition) at 10uM” value was -19.7%. For COc1ccc([C@H]2CC(=O)C=C(c3ccc(Cl)cc3C)C2)cc1, the “hERG current change (%, negative = inhibition) at 10uM” value was 4.03%. O=C1CS/C(=N\c2ccccn2)N1C1CCCCC1 was tested, and the “hERG current change (%, negative = inhibition) at 10uM” value was 13.7%. COc1ccc(NC(=O)CN2CCCN(S(=O)(=O)c3ccc(F)cc3)CC2)c(OC)c1 was tested, and the “hERG current change (%, negative = inhibition) at 10uM” value was -54.6%. CCC(=O)N(CCC1(C(C)C)CCOC(C)(C)C1)Cc1ccco1 (centres unmarked) was tested, and the “hERG current change (%, negative = inhibition) at 10uM” value was 5.86%. In the case of Cc1ccc(C(=O)Oc2cccc(-n3cnnn3)c2)cc1, the “hERG current change (%, negative = inhibition) at 10uM” value is reported as 9.55%. With CC(/C=C/c1ccccc1)=N/NC(=O)c1cnccn1 the “hERG current change (%, negative = inhibition) at 10uM” value was 2.83%. With COc1cccc(C2/C(=C(/O)c3ccc4c(c3)CC(C)O4)C(=O)C(=O)N2CCCn2ccnc2)c1 (centres unmarked) the “hERG current change (%, negative = inhibition) at 10uM” value was 0.887%. For CCCN(CC(=O)Nc1ccc(Cl)cc1Cl)C(=O)/C=C/c1cccc([N+](=O)[O-])c1, the “hERG current change (%, negative = inhibition) at 10uM” value was -15.6%. For COc1ccc(N2CCN(C(=O)c3cc(-c4ccc(F)cc4)[nH]c3C)CC2)cc1, the “hERG current change (%, negative = inhibition) at 10uM” value was -67.4%. With CC(C)CC(=O)NC(=S)N1CCCCCC1 the “hERG current change (%, negative = inhibition) at 10uM” value was 10.5%. With Cc1ccccc1-c1cc(C(=O)Nc2nc3c(s2)CCCC3)c2ccccc2n1 the “hERG current change (%, negative = inhibition) at 10uM” value was 13.4%. In the case of O=C(CSc1nc2ccccc2[nH]1)N1CCN(c2ccc(F)cc2)CC1, the “hERG current change (%, negative = inhibition) at 10uM” value is reported as -55.6%. Cc1ccc(C(=O)CSc2nnc(-c3ccccc3)o2)cc1 was tested, and the “hERG current change (%, negative = inhibition) at 10uM” value was -0.101%. For COC(=O)c1ccc(NC(=O)c2ccccc2SC)cc1, the “hERG current change (%, negative = inhibition) at 10uM” value was -21.5%. With O=C(O)CCN1C(=O)c2ccccc2C1=O the “hERG current change (%, negative = inhibition) at 10uM” value was 26%. With CN(C(=O)Cn1c(Cl)nc2c1c(=O)n(C)c(=O)n2C)C1CCS(=O)(=O)C1 (centres unmarked) the “hERG current change (%, negative = inhibition) at 10uM” value was 19.3%.
